AUC and IC50 data for 20 cell lines are collected here from the supplement of paper PMC4967469.

IC50 is the fitted dose that halves viability relative to control wells, and lower means more sensitive; fits outside the tested doses are given as limits. AUC, from the same fit, is the share of area under the viability curve across the 256-fold dose range; the more sensitive the line, the further below 1. A top dose marked as inferred was calculated from the reported fits.

As usually defined, the IC50 is the point on the concentration scale where inhibition reaches its midpoint.

Compound in one assay: CC(C)=CC[C@@H](O)C1=CC(=O)c2c(O)ccc(O)c2C1=O [Shikonin]
The experiment in a line: Viability of human cancer cell lines after 72 h of drug (GDSC screen). As to conditions: top dose 16 µM; top dose inferred. As for the experimental part:
(§1)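 Human cancer cell lines in 384-well plates, medium with 10% serum, drug for 72 h over a 256-fold dose range (nine 2-fold or five 4-fold steps up to the top dose). Adherent lines were fixed and stained with the nucleic acid dye Syto60, suspension lines read with resazurin; signal relative to control wells, capped at 0 and 100%. One two-parameter sigmoid per drug and line, fitted in a mixed model over all curves with the slope shared within a line.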
Consider NCI-SNU-5 (stomach, suspension), for which the AUC was found to be 0.644 and the IC50 amounted to 2510 nM.
With NCI-SNU-16 (stomach, suspension), the AUC worked out at 0.991 and the IC50 is over 16000 nM.
The matching figures for NH-12 (neuroblastoma, adherent): 0.477 and 857 nM.
In the same order, the values of NMC-G1 (glioma, adherent) are 0.524 and 1180 nM.
The matching figures for NOS-1 (osteosarcoma, adherent): 0.793 and 9250 nM.
As to “OCI-AML3 (acute myeloid leukaemia, suspension)”, the AUC was found to be 0.301 and the IC50 was 304 nM.
Regarding “OCI-AML5 (acute myeloid leukaemia, suspension)”, the AUC came out at 0.333 and the IC50 came out at 360 nM.
In the same order, the values of OCI-LY-19 (B-cell lymphoma, suspension) are 0.257 and 216 nM.
The matching figures for OCUB-M (breast, adherent): 0.518 and 1110 nM.
In the same order, the values of ONS-76 (medulloblastoma, adherent) are 0.311 and 282 nM.
With OS-RC-2 (kidney, adherent), the AUC was 0.357 and the IC50 was found to be 335 nM.
The matching figures for RH-1 (rhabdomyosarcoma, adherent): 0.354 and 425 nM.
The matching figures for RKO (large intestine, adherent): 0.315 and 318 nM.
In the same order, the values of RL (B-cell lymphoma, suspension) are 0.826 and 8640 nM.
On to “RPMI-8402 (T-cell lymphoblastic leukaemia, suspension)”, for which the AUC is 0.53 and the IC50 came out at 1190 nM.
Take “RPMI-8866 (chronic myeloid leukaemia, suspension)”: the AUC worked out at 0.46 and the IC50 came out at 784 nM.
In the same order, the values of RXF393 (kidney, adherent) are 0.466 and 780 nM.
As to “SBC-1 (small cell lung carcinoma, suspension)”, the AUC was 0.899 and the IC50 is over 16000 nM.
In the same order, the values of SF126 (glioma, adherent) are 0.458 and 765 nM.
In the same order, the values of SF268 (glioma, adherent) are 0.678 and 3290 nM.

Compound in a further assay: CCNc1cc(NC2CCC(O)CC2)nc(Nc2ccc3c(ccn3Cc3ccccc3)c2)n1 [CGP-082996 (CINK4)]
The assay is described as above. The note with it: top dose 5.12 µM; top dose inferred. As for the experimental part: as §1
In the case of NCI-SNU-5 (stomach, suspension), the AUC worked out at 0.987 and the IC50 was over 5120 nM.
As for NCI-SNU-16 (stomach, suspension), the AUC worked out at 0.915 and the IC50 was over 5120 nM.
Turning to NH-12 (neuroblastoma, adherent), the AUC worked out at 0.985 and the IC50 is over 5120 nM.
For the cell line NMC-G1 (glioma, adherent), the AUC is 0.952 and the IC50 is over 5120 nM.
In the case of NOS-1 (osteosarcoma, adherent), the AUC was determined as 0.722 and the IC50 is 1600 nM.
In the same order, the values of “OCI-AML3 (acute myeloid leukaemia, suspension)” are 0.991 and over 5120 nM.
The matching figures for “OCI-AML5 (acute myeloid leukaemia, suspension)”: 0.949 and over 5120 nM.
The matching figures for OCI-LY-19 (B-cell lymphoma, suspension): 0.943 and over 5120 nM.
With OCUB-M (breast, adherent), the AUC is 0.86 and the half-maximal inhibitory concentration (IC50) stood at 3390 nM.
In the same order, the values of ONS-76 (medulloblastoma, adherent) are 0.971 and over 5120 nM.
The matching figures for OS-RC-2 (kidney, adherent): 0.948 and over 5120 nM.
As to RH-1 (rhabdomyosarcoma, adherent), the AUC came to 0.988 and the IC50 was over 5120 nM.
Regarding RKO (large intestine, adherent), the AUC is 0.882.
As for RL (B-cell lymphoma, suspension), the AUC turned out to be 0.942 and the IC50 was over 5120 nM.
The matching figures for “RPMI-8402 (T-cell lymphoblastic leukaemia, suspension)”: 0.807 and 2140 nM.
In the same order, the values of “RPMI-8866 (chronic myeloid leukaemia, suspension)” are 0.988 and over 5120 nM.
For RXF393 (kidney, adherent), the AUC came out at 0.954 and the IC50 was over 5120 nM.
In the same order, the values of “SBC-1 (small cell lung carcinoma, suspension)” are 0.989 and over 5120 nM.
The matching figures for SF126 (glioma, adherent): 0.957 and over 5120 nM.
SF268 (glioma, adherent): the AUC was 0.927 and the IC50 was over 5120 nM.

Compound in another assay: CNC(=O)c1ccc(Nc2cc(Nc3ccccc3S(=O)(=O)C(C)C)c3cc[nH]c3n2)nc1 [HG-5-113-01]
Described as above. The note with it: top dose 10 µM; top dose inferred. As for the experimental part:
as §1
Consider NCI-SNU-5 (stomach, suspension), for which the AUC amounted to 0.985 and the IC50 was over 10000 nM.
For the cell line NCI-SNU-16 (stomach, suspension), the AUC worked out at 0.624 and the concentration for half-maximal inhibition (IC50) was 1310 nM.
In the same order, the values of NH-12 (neuroblastoma, adherent) are 0.7 and 2470 nM.
The matching figures for NMC-G1 (glioma, adherent): 0.743 and 3720 nM.
In the same order, the values of NOS-1 (osteosarcoma, adherent) are 0.806 and 6540 nM.
For “OCI-AML3 (acute myeloid leukaemia, suspension)”, the AUC stood at 0.799 and the IC50 worked out at 4040 nM.
The matching figures for “OCI-AML5 (acute myeloid leukaemia, suspension)”: 0.65 and 1570 nM.
The matching figures for OCI-LY-19 (B-cell lymphoma, suspension): 0.77 and 3530 nM.
In the same order, the values of OCUB-M (breast, adherent) are 0.683 and 1870 nM.
On to ONS-76 (medulloblastoma, adherent), for which the AUC is 0.72 and the IC50 stood at 2780 nM.
In the same order, the values of OS-RC-2 (kidney, adherent) are 0.742 and 4320 nM.
The matching figures for RH-1 (rhabdomyosarcoma, adherent): 0.605 and 1150 nM.
The matching figures for RKO (large intestine, adherent): 0.841 and 6220 nM.
With RL (B-cell lymphoma, suspension), the AUC was determined as 0.793 and the IC50 worked out at 4140 nM.
In the same order, the values of “RPMI-8402 (T-cell lymphoblastic leukaemia, suspension)” are 0.748 and 2780 nM.
The matching figures for “RPMI-8866 (chronic myeloid leukaemia, suspension)”: 0.739 and 2830 nM.
Take RXF393 (kidney, adherent): the AUC was determined as 0.819 and the IC50 was found to be 8810 nM.
In the same order, the values of “SBC-1 (small cell lung carcinoma, suspension)” are 0.77 and 3680 nM.
The matching figures for SF126 (glioma, adherent): 0.786 and 4580 nM.
The matching figures for SF268 (glioma, adherent): 0.78 and 4430 nM.

Compound in a further assay: COc1cc(-c2nn([C@H]3CC[C@H](N4CCN(C(C)=O)CC4)CC3)c3ncnc(N)c23)ccc1NC(=O)c1cc2ccccc2n1C [A-770041]
The description is as above. The note with it: top dose 5.12 µM; top dose inferred. As for the experimental part:
as §1
In the case of NCI-SNU-5 (stomach, suspension), the AUC worked out at 0.986 and the IC50 is over 5120 nM.
The matching figures for NCI-SNU-16 (stomach, suspension): 0.96 and over 5120 nM.
The matching figures for NH-12 (neuroblastoma, adherent): 0.984 and over 5120 nM.
In the same order, the values of NMC-G1 (glioma, adherent) are 0.561 and 487 nM.
Regarding NOS-1 (osteosarcoma, adherent), the AUC came to 0.459 and the IC50 was 241 nM.
